Out of some 310,000 compounds screened, about 2,200 (0.71%) showed an effect of 50% or more. Effects have a minus sign here. Some of the results follow.

Chain of human ether-à-go-go-related gene (hERG) potassium channel (Q12809 whole entry, looked up): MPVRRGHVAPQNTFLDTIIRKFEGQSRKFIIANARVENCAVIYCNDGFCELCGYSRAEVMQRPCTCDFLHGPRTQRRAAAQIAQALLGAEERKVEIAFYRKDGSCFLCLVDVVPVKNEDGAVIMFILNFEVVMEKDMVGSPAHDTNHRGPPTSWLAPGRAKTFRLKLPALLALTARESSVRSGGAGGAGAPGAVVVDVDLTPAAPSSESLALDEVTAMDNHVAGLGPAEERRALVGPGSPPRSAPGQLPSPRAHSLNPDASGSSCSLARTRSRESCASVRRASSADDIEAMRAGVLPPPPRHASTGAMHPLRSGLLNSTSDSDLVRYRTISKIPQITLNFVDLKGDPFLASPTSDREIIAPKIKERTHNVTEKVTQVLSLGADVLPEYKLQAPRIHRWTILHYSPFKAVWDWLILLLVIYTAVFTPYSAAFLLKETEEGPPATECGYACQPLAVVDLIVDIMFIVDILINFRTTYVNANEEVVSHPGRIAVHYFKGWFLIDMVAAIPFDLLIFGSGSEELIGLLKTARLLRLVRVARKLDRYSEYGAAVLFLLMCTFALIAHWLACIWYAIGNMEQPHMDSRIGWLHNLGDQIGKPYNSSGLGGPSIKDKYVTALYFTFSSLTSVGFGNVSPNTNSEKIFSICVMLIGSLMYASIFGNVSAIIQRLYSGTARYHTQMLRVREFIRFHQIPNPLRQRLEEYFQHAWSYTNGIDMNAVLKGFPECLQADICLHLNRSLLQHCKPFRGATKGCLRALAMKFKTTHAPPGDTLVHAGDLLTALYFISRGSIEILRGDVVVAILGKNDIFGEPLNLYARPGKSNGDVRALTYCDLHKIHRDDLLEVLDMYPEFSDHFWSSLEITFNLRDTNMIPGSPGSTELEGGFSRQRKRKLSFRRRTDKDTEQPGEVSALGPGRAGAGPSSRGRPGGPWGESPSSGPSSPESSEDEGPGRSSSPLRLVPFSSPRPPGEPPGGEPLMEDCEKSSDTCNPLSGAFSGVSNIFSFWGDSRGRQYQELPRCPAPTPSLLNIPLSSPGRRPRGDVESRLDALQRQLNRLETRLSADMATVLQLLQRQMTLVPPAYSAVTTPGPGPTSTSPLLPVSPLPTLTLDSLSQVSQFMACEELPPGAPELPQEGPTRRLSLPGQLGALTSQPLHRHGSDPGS

The test has as its target human ether-à-go-go-related gene (hERG) potassium channel (human, UniProt Q12809). In words: primary screen, population patch clamp on CHO cells stably expressing hERG.
Turning to `COc1cccc(C(=O)NC(c2ccccc2)C2CCCC2)c1` (centres unmarked), the “hERG current change (%, negative = inhibition) at 1uM” value stood at 12.5%.
Then `O=C(COc1ccc(Cl)cc1)Nc1ccc(C(=O)NCc2cccnc2)cc1`, with 7.27%; and `Cn1c(=O)c2c(nc(N/N=C/c3ccc(OC(=O)c4ccco4)cc3)n2Cc2ccc(F)cc2)n(C)c1=O`, with 3.14%; and `C=CCn1nc(-c2ccccc2)cc1C(=O)OCC`, with 14.6%.
In the case of `CC1CCc2sc(C(=O)N=Nc3c(O)[nH]c4ccccc34)cc2C1` (centres unmarked), the “hERG current change (%, negative = inhibition) at 1uM” value came to 12.7%.
In the case of `CCn1nnc2cc(C(=O)Nc3cc(S(C)(=O)=O)ccc3Cl)ccc21`, the “hERG current change (%, negative = inhibition) at 1uM” value turned out to be 12.1%.
Under `CN(CC(=O)Nc1ccccc1Cl)C(=O)COC(=O)/C=C/c1cccs1` stands 3.64%.
As to `COc1ccc(Nc2nc(N)c3ccccc3n2)c(OC)c1.Cl`, the “hERG current change (%, negative = inhibition) at 1uM” value worked out at 7.66%.
Under `Cc1[nH]c2ccccc2c1-c1csc(NC(=O)CSCCO)n1` stands 7.67%; under `Cn1c(SCc2ccccc2F)nnc1-c1cnccn1`, 8.47%.
Under `CCc1nnc(NC(=O)c2sc3nc4cc(C)ccc4cc3c2N)s1` stands 28%; under `C[C@H](C(=O)NCc1ccccc1)C(=O)c1ccccc1`, 8.46%.
Under `COc1ccccc1OCc1nc(C#N)c(NCCCn2ccnc2)o1` stands 18.3%.
Regarding `CN1C[C@@H]2C(c3ccc(Cl)nc3)C3(c4ccc(C#N)cc4)CC2(C3)[C@H]1c1ccccc1` (some centres unmarked), the “hERG current change (%, negative = inhibition) at 1uM” value is -7.57%.
Regarding `COc1ccc2[nH]c(=O)c(CN(C)C(=O)c3cccs3)cc2c1`, the “hERG current change (%, negative = inhibition) at 1uM” value was -3.91%.
Consider `COc1ccc(-c2nnn(-c3ccc(Cl)cc3Cl)c2N)cc1`, for which the “hERG current change (%, negative = inhibition) at 1uM” value is recorded as -0.193%.
Then `O=C(Cc1cccs1)N/N=C\c1ccc(O)cc1`, with 14.2%; and `CC(=O)Nc1ccc(NC2=Nc3ccccc3N3C2=Nc2c(c(C)nn2-c2ccccc2)C3c2ccccc2)cc1` (centres unmarked), with 9.02%; and `c1ccc(CNc2nc(-c3cccs3)nc3ccccc23)nc1`, with 7.04%.
With `CCOc1cc(CNCCO)cc(Br)c1OCc1ccccc1.Cl`, the “hERG current change (%, negative = inhibition) at 1uM” value was 9.9%.
`Cc1cc(C)cc(NC2=NCC(=O)N2Cc2ccccc2)c1`: the “hERG current change (%, negative = inhibition) at 1uM” value worked out at 6.97%.
In the case of `CCOC(=O)c1csc(COc2ccc(OC)cc2)n1`, the “hERG current change (%, negative = inhibition) at 1uM” value is recorded as -0.175%.
Then `COc1cc(NC(=O)CN2CCN(c3ccccc3)CC2)c(C)cc1[N+](=O)[O-]`, with 10.4%; and `COCCCN1C(=O)C(=O)/C(=C(/O)c2ccc(OC(C)C)cc2)C1c1cccnc1` (centres unmarked), with 22.5%.
Then `O=C(O)CCC(=O)CCC(=O)c1ccccc1`, with 2.98%; and `O=C(Nc1ncc(Cc2ccc(Cl)cc2Cl)s1)c1ccc([N+](=O)[O-])cc1`, with 2.13%; and `COc1ccc(NC(=O)C2CCCC2)cc1S(=O)(=O)N1CCOCC1`, with 1.61%.
Under `CC(C)(C)C1=CC(O)(c2ccccc2)C=C(C(C)(C)C)C1=O` stands 21.9%.
On to `CCCCNC(=O)CSc1nc2ccc(NC(=O)CSc3nnc(COc4ccccc4C)n3C)cc2s1`, for which the “hERG current change (%, negative = inhibition) at 1uM” value was found to be 14.6%.
Then `Cc1cc(=O)oc(C)c1C(=O)Nc1cccc(F)c1`, with 13.1%; and `COc1ccc(NC(=O)N2CCN(C(=O)C(Cc3ccc(F)cc3)NC(C)=O)CC2)cc1` (centres unmarked), with 4.68%; and `CCOC(=O)c1ccc(NC(=O)CNC(=O)c2ccccc2)cc1`, with 7.06%.
Under `Cc1cc(N/N=C/c2c[nH]c3ccccc23)c2ccccc2n1` stands 12.4%; under `CCOC(=O)C1=C(C)NC(C)=C(C(=O)OCC)C1c1ccc(C)o1`, 10.2%; under `O=C(NC1CCCCC1)c1cc([N+](=O)[O-])[nH]n1`, 6.33%.
Then `CCOC(=O)C1CCN(C(=O)CN(c2ccc(OC)cc2)S(=O)(=O)c2c(C)noc2C)CC1`, with -0.213%; and `CCc1nc(N)c(C#N)c(-c2ccncc2)c1C`, with 9.24%; and `COc1ccc(-c2nn(-c3ccccc3)cc2/C=C\C(=O)Nc2ccc(C(=O)O)cc2)cc1`, with 10.3%.
Regarding `COc1cc(Cl)cc(C2NC(=O)NC(C)=C2C(C)=O)c1OCC(=O)O` (centres unmarked), the “hERG current change (%, negative = inhibition) at 1uM” value is on record as -0.404%.
Under `CCc1ccc(-c2cc(C)no2)cc1S(=O)(=O)N1CCOc2ccccc21` stands 1.72%; under `Cc1nc2c(cnn2-c2ccccc2)c(=O)[nH]1`, 17%; under `CCOC(=O)CCC(NC(=O)CC(=O)NC(CCC(=O)OCC)C(=O)OCC)C(=O)OCC` (centres unmarked), 14.7%.
`N=c1c(S(=O)(=O)c2ccc(Br)cc2)cc2c(=O)n3ccccc3nc2n1Cc1ccco1`: the “hERG current change (%, negative = inhibition) at 1uM” value is listed as 15.4%.
As to `O=[N+]([O-])c1ccc(O)c(-c2cc(C(F)(F)F)nc(-c3ccccc3)n2)c1`, the “hERG current change (%, negative = inhibition) at 1uM” value came to 15.7%.
Take `Cc1nn2c(NCCOCCO)c3c(nc2c1-c1ccccc1)CCC3`: the “hERG current change (%, negative = inhibition) at 1uM” value is -9.29%.
`COC(=O)C(C(=O)OC)C(C)C(C(=O)OC)C(=O)OC`: the “hERG current change (%, negative = inhibition) at 1uM” value is reported as 1.64%.
For the molecule `CC(C)Oc1cccc(C(=O)NC(=S)NCc2cccnc2)c1`, the “hERG current change (%, negative = inhibition) at 1uM” value was -9.66%.
As to `O=C(NCCc1ccccc1)C(=O)NCC1OCCN1S(=O)(=O)c1ccc(Br)cc1` (centres unmarked), the “hERG current change (%, negative = inhibition) at 1uM” value is on record as 8.83%.
In the case of `O=C(Nc1ccc(NC(=O)c2cccs2)cc1)c1ccc2c(c1)OCCO2`, the “hERG current change (%, negative = inhibition) at 1uM” value worked out at 11%.
Under `CNC(=O)CN(c1cccc(Br)c1)S(C)(=O)=O` stands 11.4%; under `Cc1cc(C)c(OCC(=O)NCC(C)(C)N2CCOCC2)c(C)c1`, -0.673%.
As for `S=C1NCN(Cc2cccnc2)CN1Cc1ccccc1`, the “hERG current change (%, negative = inhibition) at 1uM” value amounted to 21.5%.
As to `COc1ccc(NCc2nnc(SCC(=O)N3CCCc4ccccc43)n2C)cc1`, the “hERG current change (%, negative = inhibition) at 1uM” value is given as -2.8%.
Regarding `CCOc1cc(C(=O)NC(=S)Nn2cnnc2)cc(OCC)c1OCC`, the “hERG current change (%, negative = inhibition) at 1uM” value is given as 12.5%.
Then `CC1(C)CN(c2ccccc2)N(C(=O)c2ccc(F)cc2)C1=O`, with 2.5%; and `CCOc1ccc2cc(S(=O)(=O)n3ccnc3C)ccc2c1`, with 13%.

Source of the values: publication PMC4336329 (PLoS ONE, 2015).
